# Results reported in PubChem BioAssay AID686979 (National Center for Advancing Translational Sciences (NCATS), 2013).
# About 50,000 (12%) of roughly 420,000 compounds were called active. The shares of active, inactive and inconclusive entries below differ from those in the screen. The call rests on the fitted dose curve; in most records, active means well fitted inhibition curve with a large enough effect; inconclusive means small, poorly fitted or top-dose-only effect; inactive means flat fitted curve, though single readings scatter. Potencies of inconclusive entries are left out as doubtful fits.
# Test: qHTS for Inhibitors of human tyrosyl-DNA phosphodiesterase 1 (TDP1): qHTS in cells in presence of CPT; further: nearly all actives have a fitted effect of over 55% in size
# Conditions: chicken DT40 Tdp1-/-;hTDP1 cells + 20 nM CPT, ATP luminescence, 48 h; activity change, negative = growth inhibition: at 46.2 µM (top of the series) unless noted
# Method in brief: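 Cell growth measured by CellTiter-Glo luminescence after a minimum 48 h, 37 C compound exposure with 20 nM CPT in Tdp1-knockout DT40 cells stably expressing hTDP1, seeded 400/well; qHTS titration format.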
# On the % scale 0 is the no-effect control and ±100 the full control effect; potency means the concentration at half of the fitted maximal effect; tags describe the fitted curve by direction and shape.
Structure (SMILES),Potency,"activity change, negative = growth inhibition"
CCN(Cc1cccs1)C(=O)CN1C(=O)NC(c2ccccc2)(c2ccccc2)C1=O,"inconclusive [inhibitor, single point]",
CCOC(=O)c1cc2c(ccn2-c2ccc(F)cc2)n1CC(=O)N1CCN(C(=O)c2ccco2)CC1,"inconclusive [inhibitor, single point]",
O=C(NCCc1ccccc1)C(=O)NCC1OCCN1S(=O)(=O)c1ccc2c(c1)OCCO2 (centres undefined),"inconclusive [inhibitor, single point]",
CC1(C)CC(=O)C2=C(C1)Nc1ccccc1NC2c1ccc([N+](=O)[O-])cc1 (centres undefined),,inactive: 1.06%
CC(C)C(c1nnnn1Cc1ccc(F)cc1)N1CCN(Cc2ccc3c(c2)OCO3)CC1 (centres undefined),"inconclusive [inhibitor, single point]",
CC1(C)C2CCC(C2)C1C/C=N/NC(N)=S (centres undefined),"inconclusive [inhibitor, partial curve, poor fit]",
COc1cc(OC)cc(C(=O)NCC2CCCN(C(=O)c3csc(C)n3)C2)c1 (centres undefined),,inactive: -2.41%
N#CC1=C(N)C2=CCCC[C@H]2[C@H](c2cccc(F)c2)C1(C#N)C#N,"inconclusive [inhibitor, single point]",
C/C(CC(=O)Nc1ccccn1)=N\NC(=O)c1ccccc1O,active: 4.11 µM,
COc1cccc(NC(=S)N2CCCC2c2ccc(OC)c(OC)c2)c1 (centres undefined),,inactive: -18.5%
CC(C)C[C@@]12C(=O)N(c3ccc(Br)cc3)C(=O)N1[C@H](c1ccc(Br)cc1)[C@@H]1C(=O)N(C(C)(C)C)C(=O)[C@@H]12,"inconclusive [inhibitor, single point]",
CCOc1cc(-c2nnc(-c3ccco3)o2)cc(OCC)c1OCC,active: 18.4 µM,
COC(=O)c1cc(NC(=O)c2cccs2)ccc1N1CCOCC1,"inconclusive [inhibitor, partial curve]",
Cc1cc2nc(-c3ccc(SCC(=O)N4CCN(C(=O)c5ccco5)CC4)nc3)[nH]c2cc1C,"inconclusive [inhibitor, partial curve]",
Cc1c(Cl)cccc1NC(=S)Nc1ccc2[nH]c(=O)[nH]c2c1,,inactive: -0.247%
CCSc1nnc(NC(=O)CSc2nc3c(c(=O)n2CC)SC(C)C3)s1 (centres undefined),active: 13 µM,
CCCNC(=O)CCc1nnc2ccc(N3CCN(c4cccc(OC)c4)CC3)nn12,,inactive: -12.5%
Cc1c(C(=O)NCC(c2ccc(Cl)cc2)N2CCOCC2)oc2ccccc12 (centres undefined),active: 16.4 µM,
CC(=O)CC1c2ccccc2C=C(c2ccsc2)N1c1ccc(-c2cccs2)cc1 (centres undefined),active: 10.3 µM,
COc1ccc(N(CC(=O)NC2CCCCC2)C(=O)c2ccc(C)s2)cc1OC,,inactive: 5.55%
O=S(=O)(c1cccs1)N1CCN(c2ccc(O)cc2)CC1,active: 2.59 µM,
O=C(c1cn(Cc2ccccc2)nc1-c1cccnc1)N1CCN(Cc2ccccc2)CC1,"inconclusive [inhibitor, single point]",
Cc1noc(C)c1COc1ccc(C(=O)N2CCN(c3ccccn3)CC2)cc1,,inactive: -2.5%

Structure (SMILES),Potency,"activity change, negative = growth inhibition"
CCC1CCCCN1Cc1ccc(CNS(=O)(=O)c2ccc3c(c2)oc(=O)n3C)o1 (centres undefined),,inactive: -9.15%
CC(C)c1ccc(S(=O)(=O)Nc2ccc3c(c2)OCO3)cc1,"inconclusive [inhibitor, single point]",
O=C(Nc1cc(C(F)(F)F)ccc1N1CCCCC1)C1=COCCO1,"inconclusive [inhibitor, single point]",
Cc1occc1C(=O)NNS(=O)(=O)c1ccc(Cl)cc1,"inconclusive [inhibitor, single point]",
CC(=O)n1cc([C@H]2C=C(C(=O)NCc3ccccc3)O[C@@H](OCCCCO)C2)c2ccccc21,"inconclusive [inhibitor, single point]",
Cc1ccc(CN2CCC(CNC(=O)Nc3ccc(Cl)cc3)C2)cc1 (centres undefined),"inconclusive [inhibitor, single point]",
CC(C)(C)S(=O)N1Cc2cc(C(=O)N3CCc4ccccc4C3)nc(-c3cccc(-c4ccncc4)c3)c2[C@H]1CCO (some centres undefined),"inconclusive [inhibitor, single point]",
CC1(C)OC2CC3C4CCC5=CC(=O)C=C[C@@]5(C)[C@]4(F)C(O)C[C@@]3(C)[C@]2(C(=O)CO)O1 (some centres undefined),,inactive: 0.686%
COCCNc1nc(NCc2cnc(C)cn2)c2sccc2n1,,inactive: -19.4%
CC(C)(C)OC(=O)N1CCC(c2c(C(=O)NCCN3CCc4ccccc4C3)cnn2-c2ccc(F)cc2F)CC1,active: 20.6 µM,
CCc1noc(C)c1C(=O)Nc1nc2c(C)cc(C)cc2s1,"inconclusive [inhibitor, single point]",
COc1cc(C)ccc1OCCOCCOc1ccc([N+](=O)[O-])cc1,"inconclusive [inhibitor, partial curve, poor fit]",
CC1(C)CC(=O)C=C(c2ccc(-c3ccc4[nH]ccc4c3)cc2)C1=O,"inconclusive [inhibitor, single point]",
COc1ccc2c(c1)C(SCC(=O)NCc1ccccc1)CC(C)(C)O2 (centres undefined),"inconclusive [inhibitor, partial curve]",
CCOC(=O)c1c(C)[nH]c(C2=NNC(=NC3CC3)SC2)c1C,"inconclusive [inhibitor, single point]",
COc1ccccc1C(=O)Nc1ccc(S(=O)(=O)NC2=NCCCCC2)cc1,"inconclusive [inhibitor, partial curve]",
Cc1ccc(-n2c(=O)c3cccnc3n2CC(=O)Nc2ccc(Br)cc2)cc1C,"inconclusive [inhibitor, single point]",
O=C(c1ccc(Cl)cc1)C1CCN(CC(=O)N2CCCCC2)CC1,"inconclusive [inhibitor, single point]",
Cc1ccc(NC(=O)CCn2c(=O)c3cccn3c3ccccc32)cc1C,"inconclusive [inhibitor, single point]",
CCOC(=O)/C(C#N)=C/c1cn(CCC(=O)O)nc1-c1ccccc1,"inconclusive [inhibitor, single point]",
O=C(Nc1ccc(S(=O)(=O)N2CCCC2)cc1)c1cnccn1,,inactive: -20.1%
COc1cccc(N2CCN(CC(=O)Nc3ccccc3C(=O)NCCc3ccccc3)CC2)c1,active: 20.6 µM,
COc1ccc(C(=O)COC(=O)CNC(=O)c2ccc(OC)cc2)cc1,,inactive: 3.83%

Structure (SMILES),Potency,"activity change, negative = growth inhibition"
COC(=O)c1ccc2nc(-c3cccc(Cl)c3)c(Cc3ccsc3)n2c1,"inconclusive [inhibitor, single point]",
CC(C)Cc1ccc(CN2CCCC(NC(=O)Cn3cnnn3)C2)cc1 (centres undefined),"inconclusive [inhibitor, partial curve, poor fit]",
Brc1cccc(OCCOCCn2ccnc2)c1,,inactive: -20%
O=C(N/N=C/c1ccc(O)c(O)c1)c1cc(-c2ccccc2)nc2ccccc12,active: 8.2 µM,
COC(C[C@H](O)[C@@H](C)[C@@H](O)COCc1ccccc1)OC,,inactive: -6.14%
COc1ccc(-n2nnnc2-c2ccccc2)cc1,active: 3.66 µM,
CC(C)c1ccc(/C=C/C(=O)NCCCN2CCOCC2)cc1,"inconclusive [inhibitor, single point]",
CCn1c(-c2ccc(C)cc2)nn(CC(=O)NCCc2ccccc2)c1=S,active: 2.91 µM,
FC(F)(F)c1ccc(-c2cccc3c2C2CC3CCN2C(=S)NCCc2ccccc2)cc1 (centres undefined),"inconclusive [inhibitor, single point]",
CC(C(=O)NCCCc1ccccc1)n1cccc1C(=O)c1ccccc1 (centres undefined),"inconclusive [inhibitor, single point]",
Cc1cc(C)cc(NC(=O)C(Cc2ccccc2)NS(=O)(=O)c2ccc3c(c2)c(=O)n(C)c(=O)n3C)c1 (centres undefined),"inconclusive [inhibitor, single point]",
COc1ccc(S(=O)(=O)c2ccccc2)cc1NC(=O)c1c(F)cccc1F,"inconclusive [inhibitor, single point]",
CCC(NC(=O)CCc1ccccc1)c1ccccc1 (centres undefined),,inactive: 1.49%
C/C=C/Cn1c(SCc2ccc(C)cc2)nc2c1c(=O)[nH]c(=O)n2C,"inconclusive [inhibitor, single point]",
COc1ccc(N(CCC(=O)Nc2ccccc2F)S(=O)(=O)c2ccc(C)cc2C)cc1,"inconclusive [inhibitor, single point]",
Cc1cccc(-c2nc(C#N)c(N3CCCCCC3)o2)c1,active: 29.1 µM,
CCOc1ccc(/C(O)=C2\C(=O)C(=O)N(c3ccccn3)C2c2ccccc2F)c(C)c1 (centres undefined),"inconclusive [inhibitor, single point]",
OC[C@@H]1CN(Cc2ccc(Cl)cc2)C[C@H](n2cnc3c(NCc4ccc(F)cc4)ncnc32)O1,active: 18.4 µM,
CCOC(=O)N1CCc2c(sc(NCc3sccc3C)c2C(=O)Nc2ccc(OC)cc2OC)C1,"inconclusive [inhibitor, single point]",
Cn1ncc2c(N3CCN(c4cccc(Cl)c4)CC3)ncnc21,"inconclusive [inhibitor, full curve]",
COc1ccc(Cl)cc1S(=O)(=O)N1CCCC(C(=O)NCc2ccncc2)C1 (centres undefined),,inactive: -25%
COc1ccc(C)cc1NC(=O)CCS(=O)(=O)c1cc2c3c(c1)CCN3C(=O)CC2,"inconclusive [inhibitor, partial curve, poor fit]",
O=C(CC1SC(=O)N(Cc2ccccc2Cl)C1=O)Nc1nccs1 (centres undefined),,inactive: -21.1%
